Read counts are not given, so values of variants with three or more changes are uncertain.
B1: OR4K15 (parent)
chain: GUUAACGGUCAUAGGCCAUGGAAACUAGGAGCACCAUUUCGCUGCCAGUGAAGAAAUGAACAAAGAAAAUCUGGGCCAGGCAGGCAUCAAAAGAAAUAGUCUUGCGCUCAACCAGAAAGUCUGUAAUCAUUUUAAGGGUA

Variants of: B1
Assay: self-cleavage, relative activity (ratio to wild type); higher = more cleavage; in vitro, sequencing; the parent is a self-cleaving ribozyme

Row | Variant | self-cleavage
1 | U9C A30U U100C U108C | 0.02
2 | U9A U49C A52U U70C A92G A117G | 1.16
3 | U9A A13G U49C A95U | 1.18
4 | U9C A54G A68U U131C | 0.91
5 | U9C A91G A114G | 0.46
6 | U9C G20A A47G A110G | 0.05
7 | G7A U9A A60G A96G A111G A117U A118G | 0.01
8 | U9C A33C C34A U43A | 0.13
9 | U9A A22U A24C A60G A111G A114U | 0.01
10 | U9C A92G A98G | 0.38
11 | U9C A52U A66G A67G | 0.89
12 | U9C A33G A114G A135G | 0.25
13 | U9C A13U U39C U57C A92G A134U | 0.94
14 | U9A U122C A125G | 0.57
15 | U9C A64G A90G U122C | 1.94
16 | G7A U43C U87C A140G | 1.29
17 | U9C A54G A118G | 0.42
18 | G7U U26C U43A U132C | 1.9
19 | U9C U12C A68U A94U U108C A111U | 0
20 | U9A U38C A82G A95G A126G | 0.34
21 | U9C C46U A116G | 1.23

Row | Variant | self-cleavage
22 | U9C U19C A33U | 1.39
23 | U9C A59U A96C | 0.83
24 | U9C A47G A56G A62U A129C | 0.48
25 | U9A A90U A129G | 1.73
26 | U9A A66C C85U U87C A95G A117G | 0.81
27 | U9A U37C A51G A56C | 1.69
28 | G7U U9A A69G | 0.89
29 | G8C A13G C34U U37C A68G U70C A94G U103C | 0.96
30 | U9C A24U A90G | 0.42
31 | U9A A30G U37C A52G | 1.52
32 | U9A A78G U132C | 0.11
33 | U9C A23G U39A U102C | 1.13
34 | U9C A36G U72A A91G U139C | 0.13
35 | U9A A18G A54G | 1.48
36 | G7A A95G U103C U127C A135G | 0.92
37 | U9C A63G A118G G136U | 1.22
38 | G8A U39C U49C A60G A96U A117U | 0.56
39 | U9C A27G U49C A63G A64G U108C A129G A140G | 0.01
40 | U9C A62G A94G U108C A114G A126G | 0.01
41 | U9C A66G U108A U122A | 0.03
42 | U9C A27G A63G A82U U100C A110G A134G | 0.02

Row | Variant | self-cleavage
43 | G8U U26C U43C A63G U87A A95G U131C | 0.67
44 | U9A C25U A78G | 0.28
45 | U9C A36G U39C C77A A118G | 0.92
46 | U9C A52G A116G A126G | 0.08
47 | U9C A23G A86G A91G | 0.11
48 | U9C A18U A59U A95G | 1.7
49 | U9C A30G G74A | 0.39
50 | U9C A69G A78U A117G | 0.42
51 | U9C A110G A111G | 0.02
52 | U9C A82U A111G | 0.03
53 | U9C A52G G74A U108C U120C U122C A126U U130C | 0.01
54 | G7U A33G U39A A94G | 1.85
55 | U9C A51C A59U C76A A96G | 0.12
56 | U9C A36G A92C A118G | 1.84
57 | U9C A51U A135G | 1.03
58 | U9C A24U A27G A66U A140G | 1.59
59 | U9A A27G A90G A94G U97C | 0.97
60 | G7A U49C U122A | 0.75
61 | G8A A55G U131C A140G | 1.76
62 | G8A U49C A69G | 1.84
63 | U9C A91G A94G U130C | 0.65

Row | Variant | self-cleavage
64 | U9C A23G A30G U43A A66U | 1.17
65 | U9A A30G A36G G84C | 0.58
66 | U9A A63G A66G U87C U102C A111G | 0.05
67 | U9A A23G A125G | 0.42
68 | U9C A36G A56G A67U G106A U130C | 0.03
69 | U9A A52G A82U A116G | 0.05
70 | G8A U38C A54G U108C | 0.02
71 | U9A A13G A23G A24G | 1.15
72 | G8A U49C A55G U102C | 1.84
73 | U9C G44A U49C | 0.96
74 | U9C A52G A78G A94G | 0.35
75 | G8A A22U G75A U103C | 0.15
76 | U9A G48A A117G | 1.32
77 | U9A U103C U131C | 0.31
78 | U9C A22G A89G | 1.7
79 | U9C G21U A51U A63G A82G | 1.45
80 | U9C A33G U43A A125G | 0.43
81 | G7U U97G U127C | 0.84
82 | G7A U87C A118G | 1.29
83 | U9C A89G A117U | 0.83
